Results from article PMC4336329 (PLoS ONE, 2015).
The campaign covered roughly 310,000 compounds. About 14,000 (4.5%) showed an effect of 50% or more. Effects have a minus sign here. The list shows a part of the results.

Each compound was assayed against human ether-à-go-go-related gene (hERG) potassium channel (human, UniProt Q12809) (assay: primary screen, population patch clamp on CHO cells stably expressing hERG).
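Further: peak tail current of the secondary pulse compared with the same well before compound.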

human ether-à-go-go-related gene (hERG) potassium channel, sequence (Q12809 whole entry, looked up): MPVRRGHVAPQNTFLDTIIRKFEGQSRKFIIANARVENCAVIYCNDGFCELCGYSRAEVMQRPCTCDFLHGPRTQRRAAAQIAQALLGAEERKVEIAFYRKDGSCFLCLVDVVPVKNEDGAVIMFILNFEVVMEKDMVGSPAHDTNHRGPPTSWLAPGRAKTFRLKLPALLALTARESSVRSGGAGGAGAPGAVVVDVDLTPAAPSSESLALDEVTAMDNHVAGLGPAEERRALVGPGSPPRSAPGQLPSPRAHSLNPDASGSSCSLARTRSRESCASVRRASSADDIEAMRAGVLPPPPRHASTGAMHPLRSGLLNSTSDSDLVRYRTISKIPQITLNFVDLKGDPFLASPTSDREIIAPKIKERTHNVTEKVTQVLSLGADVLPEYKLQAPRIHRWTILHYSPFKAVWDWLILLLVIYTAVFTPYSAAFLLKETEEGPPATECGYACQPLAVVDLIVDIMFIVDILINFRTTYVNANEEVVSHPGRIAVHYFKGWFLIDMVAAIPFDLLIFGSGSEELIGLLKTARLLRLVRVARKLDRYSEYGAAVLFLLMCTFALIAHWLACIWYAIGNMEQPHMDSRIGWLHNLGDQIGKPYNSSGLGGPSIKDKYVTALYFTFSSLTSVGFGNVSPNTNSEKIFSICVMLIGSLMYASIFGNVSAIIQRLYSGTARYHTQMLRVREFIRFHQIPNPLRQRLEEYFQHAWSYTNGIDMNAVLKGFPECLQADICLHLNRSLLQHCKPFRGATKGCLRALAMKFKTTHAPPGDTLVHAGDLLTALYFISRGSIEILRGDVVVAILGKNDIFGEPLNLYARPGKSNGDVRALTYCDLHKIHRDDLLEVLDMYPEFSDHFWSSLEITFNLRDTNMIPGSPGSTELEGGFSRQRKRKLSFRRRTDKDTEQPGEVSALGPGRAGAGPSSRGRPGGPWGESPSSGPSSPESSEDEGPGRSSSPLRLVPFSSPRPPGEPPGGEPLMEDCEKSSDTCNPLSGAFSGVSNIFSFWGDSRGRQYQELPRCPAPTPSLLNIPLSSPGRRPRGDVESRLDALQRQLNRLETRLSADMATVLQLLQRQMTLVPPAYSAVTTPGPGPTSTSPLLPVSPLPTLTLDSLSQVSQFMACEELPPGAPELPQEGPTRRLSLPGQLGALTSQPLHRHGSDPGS

| SMILES | hERG current change (%, negative = inhibition) at 10uM [%] |
| --- | --- |
| COc1cccc(/C=C2\CCC(C3CCCC3)C2=O)c1OC (centres unmarked) | 8.7 |
| COc1ccc(N(C(=O)c2ccco2)C(C(=O)NC2CCCC2)c2ccc(N3CCOCC3)cc2)c(OC)c1 (centres unmarked) | -9.32 |
| CN(C)/C=C/C(=O)c1nn(-c2ccc(F)cc2)ccc1=O | 27.6 |
| COc1ccccc1NS(=O)(=O)c1cc(C(=O)NCC2CCCO2)ccc1C (centres unmarked) | -36.8 |
| COC(=O)c1cc(S(=O)(=O)NC2CCN(Cc3ccccc3)CC2)cn1C | 0.48 |
| Cc1cc(C(=O)OCC(=O)NCc2ccc(F)cc2)c2ccccc2n1 | -9.67 |
| FC(F)(F)C(F)(F)c1nnc2ccc(-n3ccnc3)nn12 | 17.7 |
| CC(C)c1nc2n[nH]c(N)c2c2c1CCCC2 | 6.67 |
| Cc1cc(=O)oc2cc(NC(=O)Cc3ccccc3)ccc12 | 14.6 |
| C=CCNC(=O)c1onc(CSc2ccc(F)c(F)c2)c1C(=O)NCC=C | -64.5 |
| O=C(CCc1nc2sc3c(c2c(=O)[nH]1)CCCC3)NCCOc1ccccc1 | -12.4 |
| COCCNC(=O)CN(C(=O)CCC(=O)Nc1ccccn1)c1ccccc1OC | 12.5 |
| CSc1nc2ccc(NC(=O)c3ccc(=O)n(C)n3)cc2s1 | -6.11 |
| O=C(c1ccc(Cn2cnnn2)cc1)N1CCCC(Nc2ccc(F)cc2)C1 (centres unmarked) | -0.196 |
| Cc1ccc(Sc2ncccc2COC(=O)Nc2ccccc2)cc1 | 11.3 |
| Cc1ccc(-n2c(O)c(C=NC3CCCC3)c(=O)[nH]c2=O)c(C)c1 | 18 |
| N#Cc1c(N)nc2c(c1-c1cccnc1)CCCCC2 | -16.5 |
| Cc1cc(C(=O)NCC(=O)OCC(=O)Nc2ccc(OC(F)F)cc2)ccc1[N+](=O)[O-] | -67.8 |
| Br.COc1ccccc1N1CCN(CCCCN2C(=O)c3ccccc3C2=O)CC1 | -53.5 |

| SMILES | hERG current change (%, negative = inhibition) at 10uM [%] |
| --- | --- |
| O=C(NC(=S)Nc1ccccn1)c1ccccc1 | 14.1 |
| COc1ccccc1S(=O)(=O)Cc1ccc(C(=O)NCc2cccnc2)o1 | 5.9 |
| Cc1cccc(C(=O)Nc2ccc(C(=O)N/N=C/c3ccco3)cc2)c1 | 4.57 |
| CCc1ccc(N2C(=O)c3ccc4c5c(ccc(c35)C2=O)CC4)cc1 | -5.36 |
| COc1ccc(NC(=O)CSc2nnc(Cn3c(=O)sc4ccccc43)n2C)cc1 | 0.443 |
| Cc1c(NC(=O)CSc2ccccc2F)c(=O)n(-c2ccccc2)n1C | 22 |
| CC(C)(C)NC(=O)COC(=O)c1ccccc1NC(=O)c1ccco1 | -7.06 |
| Cc1cccc2c1N(C)C(=O)C2=O | 17.1 |
| COC(=O)C1(NC(=O)NC2CCCCC2)CCCCC1 | 15.3 |
| CCc1ccccc1NC(=O)N1CCC(NC(=O)C(Cc2ccc(OC)c(OC)c2)NC(C)=O)CC1 (centres unmarked) | 14.4 |
| COc1ccc(S(=O)(=O)NCC2CCC(C(=O)O)CC2)cc1 (centres unmarked) | 15.5 |
| Cc1cc(C)cc(NC(=O)CSc2nc(N)c(NC(=O)c3ccc(Br)o3)c(=O)[nH]2)c1 | 20.8 |
| Cn1ncc2c(NNC(=O)Cc3ccccc3)ncnc21 | 9.17 |
| COC(=O)Nc1ccc(S(=O)(=O)N2CCCCC2C(=O)NCc2ccco2)cc1 (centres unmarked) | 8.79 |
| Cc1cc(C(=O)N/N=C/c2cc(Br)ccc2OC(=O)c2ccccc2)n[nH]1 | 12.8 |
| COC(=O)c1sccc1NC(=O)CC1NCCNC1=O (centres unmarked) | 0.0435 |
| COC(=O)c1c(NC(=O)COC(=O)CC(NC(C)=O)c2ccccc2)sc(C)c1C (centres unmarked) | 19.2 |
| NC(=S)Nc1ncc(CCN2CCOCC2)c(-c2ccc(F)cc2)n1 | -47.7 |
| COc1cc(CCC(=O)Nc2cc(C)cc(C)c2)cc(OC)c1OC | 23 |

| SMILES | hERG current change (%, negative = inhibition) at 10uM [%] |
| --- | --- |
| CCCCNc1nc(CC)c2c(c1C#N)CCCC2 | 8.24 |
| CC(=O)Nc1ccc(NC(=O)C2CCCCN2S(=O)(=O)c2ccc(C(C)(C)C)cc2)cc1 (centres unmarked) | 5.1 |
| CCOc1ccc(Br)cc1S(=O)(=O)Nc1ccc(C(=O)Nc2ccc(C)cc2)cc1 | -8.65 |
| COc1cc(C)nc(Oc2ccc(OCCOc3ccccc3)nn2)n1 | -2.83 |
| O=C(Nc1ccc(Oc2ncnc3cc(Cl)ccc23)nc1)c1ccc(F)cc1 | 10.4 |
| COc1ccc(OC)c(N2C(=O)CC(Cc3ccc(C)cc3)C2=O)c1 (centres unmarked) | -2.87 |
| O=C(NCc1ccccc1)C1CCCN(c2cnccn2)C1 (centres unmarked) | -28.9 |
| COc1ccc(C2CC(c3ccc(C)cc3)Nc3ncnn32)cc1 (centres unmarked) | -29.3 |
| COc1ccc(NC(=O)C(=O)NCCN2CCN(C(=O)c3ccc(C(C)(C)C)cc3)CC2)cc1 | -2.54 |
| Cc1cc(C)n(CC(O)COCc2ccco2)n1 (centres unmarked) | -3.37 |
| O=C(COC(=O)CNC(=O)c1ccccc1F)NCCNC(=O)COC(=O)CNC(=O)c1ccccc1F | -1.61 |
| CC(=O)N1c2ccc(S(=O)(=O)NCCc3ccc(S(N)(=O)=O)cc3)cc2CC1C (centres unmarked) | 13 |
| COc1cccc(-c2nnc(-c3ccc(C(F)(F)F)cc3)o2)c1 | 7.97 |
| Cn1nc(-c2ccccc2)cc1NC(=O)Nc1ccc(F)cc1 | 12.7 |
| O=C(COC(=O)c1ccccc1)Nc1cc(S(=O)(=O)N2CCCCCC2)ccc1Cl | 7.5 |
| Cc1ccc(S(=O)(=O)Nc2cccc(C(=O)N3CCOCC3)c2)c(C)c1NS(C)(=O)=O | 21.9 |
| COc1ccc(Cl)cc1C(=O)O/N=C(\N)c1ccc(Cl)cc1 | -22.9 |
| O=C(Nc1ccccc1)OC1CCS(=O)(=O)C1 (centres unmarked) | -16.1 |
